Laboratory results: paper PMC10668032
The other results are listed elsewhere or left out. At the low end of the ranking the order means little.

molecular target: SIX1 homeodomain (reference allele) (UniProt Q15475); test: universal protein binding microarray; conditions: Universal all-10-mer PBM (8x60K, AMADID 030236), 300 nM GST-tagged protein, Alexa Fluor 488 anti-GST; buffer, salt, pH and temperature not stated; high values mean tight binding; most listed sequences are background and not binding sites; double strand, one strand shown

Row | Sequence | binding signal [E-score]
1 | ATTCCTAG | -0.0102
2 | ACAGCTCA | -0.2
3 | AAGAGTGT | -0.0291
4 | GATTTTCA | -0.216
5 | CAGCGCAC | -0.256
6 | ACTTTAAG | -0.0726
7 | ACTCTTGC | -0.0799
8 | CCAGAAGG | 0.0442
9 | CTGGCAGA | -0.0837
10 | GTCCGTCA | -0.299
11 | ACCGATTG | 0.00258
12 | ACTCAAGT | -0.111
13 | CGATCGCA | 0.284
14 | ACTCCGCG | 0.152
15 | CTGGCGAC | -0.252
16 | AGTGGAGC | -0.0928
17 | CCAAACAA | -0.0894
18 | TTCTAAAA | -0.112
19 | GGGTAATA | 0.311
20 | ATATCCAC | 0.395
21 | ATTTCTTG | -0.273
22 | AACAGCAC | -0.244
23 | AGCTACTC | -0.141
24 | ACTCCCGG | 0.0728
25 | AATCTGCA | 0.0208

Row | Sequence | binding signal [E-score]
26 | AGATCGCA | 0.281
27 | CGGTCATA | 0.0521
28 | AGCCTAAG | -0.142
29 | CCGCAACC | -0.0441
30 | CGACCGTA | -0.0336
31 | AAACGGGC | -0.085
32 | CTCGATCA | 0.105
33 | AGATATTG | 0.311
34 | AAAATAGG | -0.112
35 | GGGGGTGA | -0.0422
36 | AAATCGAC | -0.354
37 | AAAAACGC | -0.146
38 | ACAGCGCG | -0.345
39 | TGCGACCA | -0.00851
40 | AGTGAGAA | 0.134
41 | AAGAACCC | -0.113
42 | GACCTTCC | -0.259
43 | CACTAGCG | -0.0772
44 | ACTCGGGC | -0.00516
45 | GAACAAAC | 0.00737
46 | CATCCATG | 0.139
47 | AACTGGGC | -0.357
48 | GTAATCAC | -0.0264
49 | GTCTTTGA | -0.146
50 | CACTCTTC | -0.168

Row | Sequence | binding signal [E-score]
51 | ATAAGGAT | 0.272
52 | CGAGAAAG | -0.149
53 | CCTTCATC | -0.0546
54 | CATGATGC | 0.0998
55 | GCGACCGC | -0.188
56 | GCTGTTGA | -0.0429
57 | AAGTTGCC | -0.15
58 | AAAGTTAT | 0.0113
59 | AATAAACC | -0.0199
60 | GCCCTTAC | -0.344
61 | AGGCTGAC | -0.167
62 | CCCGTCAC | 0.00742
63 | CACCGGTA | 0.28
64 | ACGTCGTG | -0.0388
65 | AGTCACAT | -0.109
66 | AGATATCA | 0.451
67 | CCCCGGCG | 0.106
68 | TACTATCA | 0.325
69 | TACTAAAA | -0.0304
70 | AGCCCCGC | 0.0083
71 | AGTGACAT | -0.277
72 | AGCTGTGC | -0.0631
73 | CTGGTGAC | 0.0038
74 | CCATCGAA | 0.0149
75 | CATCTTCA | -0.115

Row | Sequence | binding signal [E-score]
76 | AGCGAGAA | -0.101
77 | ACGGAACT | -0.135
78 | CGCTATCC | 0.339
79 | CAACAGAA | -0.159
80 | GTGGGCAA | -0.15
81 | ACCCGACT | 0.0403
82 | TGCAATAA | -0.0872
83 | CACGCCCC | 0.0548
84 | CAGAGTGG | -0.0964
85 | CGGACACG | 0.06
86 | GTAACAGA | -0.0577
87 | CTACATAA | -0.149
88 | AAGTAGCT | -0.207
89 | CATGCACC | -0.201
90 | TATTCGCA | 0.115
91 | ACATCTCA | 0.194
92 | CACAATAG | 0.00042
93 | ATTAATGG | 0.102
94 | GTAACCAC | -0.131
95 | ACCGGAGA | 0.201
96 | CCGGTACA | 0.0895
97 | AGTGGCGA | 0.13
98 | CCTTAGTC | -0.169
99 | ACCCCTTA | 0.0658
100 | GTCATGGA | -0.0559

Row | Sequence | binding signal [E-score]
101 | AGCTGAAT | -0.139
102 | CGCCGGAC | -0.165
103 | ACCGAACG | -0.129
104 | CGACGGGA | 0.00103
105 | CGAACGCG | 0.0187
106 | AATTCTGC | -0.165
107 | GAAAACTC | -0.318
108 | GCACAACC | -0.293
109 | AACGAGCC | -0.0327
110 | ATCAACTA | 0.115
111 | CAGTTTAG | -0.145
112 | CCTAGAAC | -0.0964
113 | CGGGGGAA | -0.139
114 | GAGGTAGC | -0.117
115 | GCACGACA | 0.0954
116 | GTTACGGA | -0.137
117 | AGAGTTGG | -0.186
118 | CGAACGTC | -0.253
119 | CTGCACCA | -0.0478
120 | ATAGTGTC | 0.283
121 | CCAGAGTA | 0.126
122 | AGGTGCAA | -0.0425
123 | AGATACGC | 0.349
124 | AACTCTAG | -0.0794
125 | ATGAGGTG | 0.107

Row | Sequence | binding signal [E-score]
126 | CACTGGAG | 0.025
127 | ACACACAT | -0.0254
128 | CGATTACC | -0.052
129 | ACTTGGAG | 0.0631
130 | GGCAAAAC | -0.283
131 | GGAAAGGA | 0.0876
132 | CTCAGGTC | -0.169
133 | GGTGGCAC | -0.163
134 | CTACCCTC | 0.0438
135 | ACGTTAGC | -0.122
136 | AAGGTTGC | -0.118
137 | TGCAGGAA | -0.101
138 | CTCATCTA | 0.0672
139 | CAGAGACC | -0.116
140 | TGGTACAA | -0.258
141 | CTAGCTTA | -0.199
142 | CACCCCAA | 0.111
143 | GGTTCAAC | -0.00809
144 | ACGTTCAC | -0.238
145 | CCGTTCCC | -0.0549
146 | CTGTGTAA | -0.106
147 | CACGCTCA | -0.0893
148 | AGCATCCA | -0.129
149 | CTTAGACC | -0.133
150 | AGCGTACT | -0.049

Row | Sequence | binding signal [E-score]
151 | AAAGAGCA | -0.0405
152 | CCTCGCCC | -0.0825
153 | CGCCTCAA | -0.23
154 | GCAGCTGA | 6e-05
155 | AATATCTG | 0.188
156 | CCGGCTAA | 0.178
157 | TGGGCGAA | -0.0151
158 | ACAAATGG | -0.0554
159 | AAGACAAG | 0.0825
160 | ACCTACCC | 0.0871
161 | AAAGGTTC | 0.0303
162 | TAGGCCCA | -0.333
163 | GGTAAGTA | 0.106
164 | AGCAATTA | -0.123
165 | ACAATTGA | 0.136
166 | AGTCTCTG | -0.0615
167 | ACACAGTC | -0.0881
168 | GCACCTAA | -0.0277
169 | CAGTAGAC | 0.0331
170 | ACCTCGCT | -0.092
171 | TATCCTAA | 0.238
172 | AACTTAGG | -0.278
